In patent EP4692351A1, “ANTI-CD25 ANTIBODY AND ANTI-CD25 ANTIBODY-DRUG CONJUGATE” (priority 2023, dated 2024):

B1: cMAb1_hIgG1LALA-ADC (conjugate)
heavy: EVQLVESGGGLVQPGRSLKLSCAASGFTFNNYYMVWVRQAPTKGLEWVAYISTGGGTTYYRESVKGRFTISRDNAKSTLYLQMDSLRSEDTATYYCTTSVYFSDGSSHYDGEWFAYWGQGTLVTVSSASTKGPSVFPLAPSSKSTSGGTAALGCLVKDYFPEPVTVSWNSGALTSGVHTFPAVLQSSGLYSLSSVVTVPSSSLGTQTYICNVNHKPSNTKVDKRV[letters of human IgG1 Fc with changes left out]
light: DTVLTQSPALAVSPGERVTISCKASESVSTRMHWYQQKPGQQPKLLIYKASNLASGVPARFSGSGSGTDFTLTIDPVEADDTATYFCQQSWNGWAFGGGTKLELKRTVAAPSVFIFPPSDEQLKSGTASVVCLLNNFYPREAKVQWKVDNALQSGNSQESVTEQDSKDSTYSLSSTLTLSKADYEKHKVYACEVTHQGLSSPVTKSFNRGEC
B2: cMAb2_hIgG1LALA-ADC (conjugate)
heavy: QVKLLQSGAALEKPGASVKMSCKASGYTFTDYWVIWVKQSHGKSLEWIGEIYPNSGATNFNAKFKGKATLTVDKSTSTAYMELSRLTSEDSAIYYCTTYDFDYWGQGVMVTVSSASTKGPSVFPLAPSSKSTSGGTAALGCLVKDYFPEPVTVSWNSGALTSGVHTFPAVLQSSGLYSLSSVVTVPSSSLGTQTYICNVNHKPSNTKVDKRV[letters of human IgG1 Fc with changes left out]
light: DVVLTQTPPTLSATIGQSVSISCRSSQSLSHTNGNTYLYWLLQRPGQPPQLLIYFVSRLESGVPNRFSGSGSGTDFTLKISGVEAEDLGLYYCVQSTHVPNTFGAGTKLELKRTVAAPSVFIFPPSDEQLKSGTASVVCLLNNFYPREAKVQWKVDNALQSGNSQESVTEQDSKDSTYSLSSTLTLSKADYEKHKVYACEVTHQGLSSPVTKSFNRGEC
B3: hMAb1B-ADC (conjugate)
heavy: EVQLVESGGGLVQPGGSLRLSCAASGFTFNNYYMVWVRQAPGKGLEWVAYISTGGGTTYYADSVKGRFTISRDNSKSTLYLQMNSLRAEDTAVYYCTTSVYFSDGSSHYDGEWFAYWGQGTLVTVSS[letters of human IgG1 constant region left out]
light: EIVLTQSPGTLSLSPGERATLSCKASESVSTRMHWYQQKPGQAPRLLIYKASNLASGVPARFSGSGSGTDFTLTISRLEPEDFAVYFCQQSWNGWAFGQGTKVEIKRTVAAPSVFIFPPSDEQLKSGTASVVCLLNNFYPREAKVQWKVDNALQSGNSQESVTEQDSKDSTYSLSSTLTLSKADYEKHKVYACEVTHQGLSSPVTKSFNRGEC

Experiments:
[1] = tested on: CD25-negative human tumor cell line Daudi; experiment: Cell proliferation suppression assay, CD25-negative Daudi; format: cell-based; conditions: CD25-negative cells; 6 days; CellTiter-Glo
Protocol: (§1) A CD25-positive human tumor cell line Karpas-299 was subcultured in RPMI1640 (Thermo Fisher Scientific Inc.) medium containing 2 mM glutamine (Life Technologies Corp.) and 20% FBS under conditions of 37°C and 5% CO2. A CD25-negative human tumor cell line Daudi was subcultured in RPMI1640 medium containing 10% FBS under conditions of 37°C and 5% CO2.
(§2) The cultured Karpas-299 was inoculated at 1 × 10^3 cells/50 µL/well in RPMI1640 medium containing 2 mM glutamine and 20% FBS to 96 well clear U bottom microplate (Corning Inc.). cMAb1_hIgG1LALA was added at 0.015 µg/mL to 15 µg/mL, and control hIgG1LALA-ADC and cMAb1_hIgG1LALA-ADC were added at 0.0015 µg/mL to 1.5 µg/mL. The cells were cultured for 6 days under conditions of 37°C and 5% CO2. The incubated plate was left standing at room temperature for 30 minutes. Reagent solution of CellTiter-Glo(TM) Luminescent Cell Viability Assay (Promega Corp.) was added at 100µL/well, and the plate was mixed at room temperature for 10 minutes under light shielding using a plate mixer (Taitec Corp.). 100 µL of the solution of each well was added to each well of 96 well white flat bottom microplate (Corning Inc.), and luminescence intensity (relative light unit (RLU)) was measured using a plate reader (Ensight: PerkinElmer, Inc.) and used as an index for the number of cells.
Cell proliferation suppressive activity against the CD25 expression-negative human tumor cell line DauDi was measured in the same manner as above using RPMI1640 medium (Thermo Fisher Scientific Inc.) containing 10% FBS (GE Healthcare Bio-Sciences Corp.). Daudi was inoculated at 1 × 10^4 cells/50 µL/well. […]
(§3) The test was carried out in accordance with 9)-1-2. […] 100 µL/well of the reaction solution was transferred to 96-well White Flat Bottom plate, and luminescence intensity (relative light unit (RLU)) was measured using a plate reader (Ensight: PerkinElmer, Inc.) and used as an index for the number of cells.

[2] = tested on: CD25-positive human tumor cell line Karpas-299; experiment: Cell proliferation suppression assay, CD25-positive Karpas-299; format: cell-based; conditions: antibody 0.015 to 15 µg/mL, ADC 0.0015 to 1.5 µg/mL; 6 days; CellTiter-Glo
Protocol: as §1
as §2, with “Reagent solution of CellTiter-Glo(TM) Luminescent Cell Viability Assay (Promega Corp.) was added at 100µL/well, and the plate was mixed at room temperature for 10 minutes under light shielding using a plate mixer (Taitec Corp.).” left out, “cells. […]” for “cells.”
as §3

[3] = tested on: MDA-MB-231 cancer cell-bearing hematopoietic stem cell-transplanted NOG mice; experiment: In vivo immunoenhancing effect: flow cytometry of tumor immunocytes in MDA-MB-231-bearing huNOG mice; design: species or system mouse
Protocol: 5 × 10^6 human breast adenocarcinoma-derived MDA-MB-231 cells (American Type Culture Collection) subcultured in Leibovitz's L-15 medium containing 10% FBS were suspended in Matrigel and subcutaneously transplanted to each female immune-humanized NOG mouse (huNOG mouse) engrafted with human CD34 cells. The mice were grouped on the basis of their tumor volumes. 7 days after transplantation, 1 mg/kg control hIgG1LALA-ADC or 0.1 mg/kg, 0.3 mg/kg, or 1 mg/kg cMAb1_hIgG1LALA-ADC was intravenously administered to each mouse (n = 5). 28 days after ADC administration, tumor was harvested. The harvested tumor mass was treated with gentleMACS (Miltenyi Biotec) to recover cells. The cells were washed with PBS and resuspended therein. Then, the cell suspension was used as a sample for flow cytometry. The amount of PBS in resuspending the cells was the following amount depending on a tumor weight for addition: 0.6 mL for a tumor weight up to 50 mg; 0.9 mL for a tumor weight of 50 to 100 mg; 1.2 mL for a tumor weight of 100 to 150 mg; 1.8 mL for a tumor weight of 150 to 200 mg; and 2.4 mL for a tumor weight of 200 to 300 mg.
Zombie NIR dye solution was prepared by diluting Zombie NIR dye solution attached to Zombie NIR Fixable Viability Kit (BioLegend, Inc.) 1000-fold with PBS. Fc Block solution was prepared by adding and mixing Mouse BD Fc Block (BD Biosciences) solution, Human BD Fc Block solution, and autoMACS Rinsing Solution (Miltenyi Biotec) containing 0.5% BSA (hereinafter, referred to as "MACS buffer") at a ratio of 1:1:48. Foxp3 Fixation/Permeabilization buffer was prepared by mixing 3.5 mL of Concentrate and 10.5 mL of Diluent of Foxp3 Fixation/Permeabilization Concentrate and Diluent (eBioscience, Inc.). Perm wash buffer was prepared by diluting Intracellular Staining Perm Wash Buffer (BioLegend, Inc.) 10-fold with H2O. A cell surface marker antibody cocktail solution was used by adding 2 µL of FITC anti-human CD25 Antibody (BioLegend, Inc.), 1 µL of APC anti-human CD8 Antibody (BioLegend, Inc.), 3 µL of Brilliant Violet 421 anti-human CD4 Antibody (BioLegend, Inc.), 2.5 µL of PE/Cyanine7 anti-human CD45RA Antibody (BioLegend, Inc.), 2 µL of Alexa Fluor 700 anti-mouse CD45 Antibody, 2 µL of Brilliant Violet 605 anti-human CD45 Antibody (BD Biosciences), and Brilliant Violet 650 anti-human CD3 Antibody, and adjusting the whole amount to 50 µL with MACS buffer. An intracellular marker antibody cocktail solution was used by adding 3 µL of PE Mouse anti-Human FoxP3 (BD Biosciences), 3 µL of PerCP/Cyanine5.5 anti-human/mouse Granzyme B Recombinant Antibody (BioLegend, Inc.), 1 µL of Mouse BD Fc Block (BD Biosciences), and 1 µL of Human BD Fc Block, and adjusting the whole amount to 100 µL with Perm wash buffer.
0.1 mL of Zombie NIR dye diluting solution was added to 0.2 mL of the sample for flow cytometry prepared in 9)-2-1, and the mixture was incubated at 4°C for 30 minutes. 0.1 mL of MACS buffer was added thereto, and the mixture was centrifuged, followed by the removal of a supernatant by suction. 0.1 mL of Fc Block solution was added to the remaining cells, which were then incubated at 4°C for 5 minutes. 0.1 mL of the cell surface marker antibody cocktail solution prepared in 9)-2-2 was added to the cells, which were then incubated at 4°C for 30 minutes. Subsequently, 0.1 mL of MACS buffer was added thereto, and the mixture was centrifuged, followed by the removal of a supernatant by suction. 0.2 mL of MACS buffer was added to the remaining cells, and the mixture was further centrifuged to remove a supernatant. This operation was further carried out twice for the washing of the cells. 0.2 mL of Foxp3 Fixation/Permeabilization buffer was added to the cells, which were then incubated at 4°C for 1 hour. 0.2 mL of the intracellular marker antibody cocktail solution was added to the washed cells, which were then incubated at 4°C for 1 hour and then washed twice with Perm wash buffer. […]

[4] = tested on: CD25-positive mouse T cell line CTLL-2; experiment: Cell proliferation suppression assay, CTLL-2; format: cell-based; conditions: 0.015 µg/mL to 15 µg/mL; 4 days; CellTiter-Glo
Protocol: A CD25-positive mouse tumor cell line CTLL-2 was subcultured in RPMI1640 (Thermo Fisher Scientific Inc.) medium containing 1 mM Sodium Pyruvate (Thermo Fisher Scientific Inc.), 1 × MEM Non-Essential Amino Acids Solution (Thermo Fisher Scientific Inc.), and 10% T-STIM with ConA under conditions of 37°C and 5% CO2.
The CD25-positive mouse T cell line CTLL-2 was inoculated at 5 × 10^2 cells/50 µL/well in RPMI1640 (Thermo Fisher Scientific Inc.) medium containing 1 mM Sodium Pyruvate (Thermo Fisher Scientific Inc.), 1 × MEM Non-Essential Amino Acids Solution (Thermo Fisher Scientific Inc.), and 10% T-STIM with ConA to 96 well clear U bottom microplate (Corning Inc.). Further, cMAb2_hIgG1LALA, control hIgG1LALA-ADC, and cMAb2_hIgG1LALA-ADC were added at 0.015 µg/mL to 15 µg/mL. The cells were cultured for 4 days under conditions of 37°C and 5% CO2. The incubated plate was left standing at room temperature for 30 minutes. […] 100 µL of the solution of each well was added to each well of 96 well white flat bottom microplate (Corning Inc.), and luminescence intensity (relative light unit (RLU)) was measured using a plate reader (EnSight: PerkinElmer, Inc.) and used as an index for the number of cells.

[5] = tested on: CD25-positive human tumor cell line EoL-1; experiment: Cell proliferation suppression assay, CD25-positive EoL-1; format: cell-based; conditions: 1 × 10^4 cells/well; 6 days; CellTiter-Glo
Protocol: as §1, with “CO2. A CD25-positive human tumor cell line EoL-1 was subcultured in RPMI1640 (Thermo Fisher Scientific Inc.) medium containing 10% FBS under conditions of 37°C and 5% CO2. A CD25-negative human” for “CO2. A CD25-negative human”
The test was carried out in accordance with 9)-1-2. However, the incubation period was set to 6 days. EoL-1 was inoculated at 1 × 10^4 cells/50 µL/well in RPMI1640 medium containing 10% FBS to 96 well clear U bottom microplate (Corning Inc.). The plate was incubated for 6 days under conditions of 37°C and 5% CO2. The plate thus incubated was brought back to room temperature. 100 µL of Celltiter-Glo Reagent of CellTiter-Glo luminescent Cell Viability Assay (Promega Corp.) kit was added to each well, and the plate was stirred for 10 minutes using a plate shaker. 100 µL/well of the reaction solution was transferred to 96-well White Flat Bottom plate, and luminescence intensity (relative light unit (RLU)) was measured using a plate reader (Ensight: PerkinElmer, Inc.) and used as an index for the number of cells.

[6] = 0.1, 0.3 or 1 mg/kg i.v. 7 days after transplantation, tumor 28 days after administration, vs 1 mg/kg control hIgG1LALA-ADC, n = 5
[7] = 3 mg/kg i.v. 7 days after transplantation, tumor 21 days after administration, vs human IgG1LALA-ADC, n = 4 or 5

Row | Molecule | cell proliferation suppressive activity against Daudi [1] | cell proliferation suppressive activity against Karpas-299 [2] | ratio of the number of human CD8-positive T cells to the number of human CD45 cells (% of hCD45) [3, 6] | ratio of the number of human GZMB-positive and CD8-positive T cells to the number of human CD45 cells (% of hCD45) [3, 6] | ratio of the number of human Treg cells to the number of human CD45 cells (% of hCD45) [3, 6] | cell proliferation suppressive activity against CTLL-2 [4] | cell proliferation suppressive activity against EoL-1 [5] | ratio of the number of human CD8-positive T cells to the number of human CD45 cells [3, 7] | ratio of the number of human GZMB-positive and CD8-positive T cells to the number of human CD45 cells [3, 7] | ratio of the number of human Treg cells to the number of human CD45 cells [3, 7]
1 | B1 | only against the CD25-positive human tumor cell line Karpas-299 | exhibited cell proliferation suppressive activity at a lower concentration than that of human IgG1LALA-ADC | increase | increase | decreased in a dose-dependent manner |  |  |  |  | 
2 | B2 |  |  |  |  |  | exhibited cell proliferation suppressive activity |  |  |  | 
3 | B3 | exhibited no cell proliferation suppressive activity |  |  |  |  |  | exhibited cell proliferation suppressive activity at a lower concentration | increase | increase | decreased
